Data on 17 compounds can be found in the supplement of paper PMC6089552.

Structures are written as SMILES. Among all 3,200 compounds or so, about 300 (9.4%) showed activity. Only a part is listed here, and it is no random draw.

For the assay, the system named is A673/TR/shEF. Nature of the assay: cell viability (LOESS-normalised, relative to median of negative controls) (log2 ratio); higher = more viable cells (less compound effect), active = hit call of the paper (over 3 MAD below the median). The note with it: treatment time: 72 h. An outline of the steps: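 A673/TR/shEF Ewing sarcoma cells (1,500 per well, 384-well plates) were grown with or without doxycycline to induce EWS-FLI1 shRNA knockdown, starting 24 h before compounds. Library compounds at two or more concentrations, with DMSO controls, were added for three days. Cell viability was read by CellTiter-Glo luminescence on an Envision reader, then LOESS-corrected per plate, divided by the median of negative controls and log2-transformed. Hits were wells at least three median absolute deviations from the median of all screened wells.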

Where [1] appears, read: 2.5 µM, library screen: screen1, EWS-FLI1 expression: high (no doxycycline).
The mark [2] stands for this setting: 2.5 µM, library screen: screen2, EWS-FLI1 expression: high (no doxycycline).
Setting [3] is: 25 µM, library screen: screen2, EWS-FLI1 expression: high (no doxycycline).
[4] abbreviates: 25 µM, library screen: screen2, EWS-FLI1 expression: low (doxycycline-induced shRNA knockdown).
Where [5] appears, read: 0.103 µM, library screen: screen3, EWS-FLI1 expression: high (no doxycycline).
Setting [6] is: 0.103 µM, library screen: screen3, EWS-FLI1 expression: low (doxycycline-induced shRNA knockdown).
[7] abbreviates: 0.308 µM, library screen: screen3, EWS-FLI1 expression: high (no doxycycline).
The mark [8] stands for this setting: 0.308 µM, library screen: screen3, EWS-FLI1 expression: low (doxycycline-induced shRNA knockdown).
[9] abbreviates: 0.926 µM, library screen: screen3, EWS-FLI1 expression: high (no doxycycline).
[10] abbreviates: 0.926 µM, library screen: screen3, EWS-FLI1 expression: low (doxycycline-induced shRNA knockdown).
Setting [11] is: 2.8 µM, library screen: screen3, EWS-FLI1 expression: high (no doxycycline).
[12] abbreviates: 2.8 µM, library screen: screen3, EWS-FLI1 expression: low (doxycycline-induced shRNA knockdown).
[13] abbreviates: 8.3 µM, library screen: screen3, EWS-FLI1 expression: high (no doxycycline).
The mark [14] stands for this setting: 8.3 µM, library screen: screen3, EWS-FLI1 expression: low (doxycycline-induced shRNA knockdown).
The mark [15] stands for this setting: 25 µM, library screen: screen3, EWS-FLI1 expression: high (no doxycycline).
[16] abbreviates: 25 µM, library screen: screen3, EWS-FLI1 expression: low (doxycycline-induced shRNA knockdown).
Where [17] appears, read: 0.25 µM, library screen: screen2, EWS-FLI1 expression: high (no doxycycline).
[18] abbreviates: 0.25 µM, library screen: screen2, EWS-FLI1 expression: low (doxycycline-induced shRNA knockdown).
Setting [19] is: 2.5 µM, library screen: screen2, EWS-FLI1 expression: low (doxycycline-induced shRNA knockdown).
[20] abbreviates: 0.25 µM, library screen: screen1, EWS-FLI1 expression: high (no doxycycline).
The mark [21] stands for this setting: 0.25 µM, library screen: screen1, EWS-FLI1 expression: low (doxycycline-induced shRNA knockdown).
Setting [22] is: 2.5 µM, library screen: screen1, EWS-FLI1 expression: low (doxycycline-induced shRNA knockdown).

Turning to `C[n+]1cc2c3c(ccc2c2ccc4cc5c(cc4c21)OCO5)OCO3`, the “cell viability (log2)” value was active: -0.232 under setting [1], active: -0.101 under setting [2], active: -4.23 under setting [3] and active: -4.28 under setting [4].

On to `Nc1ccn([C@@H]2O[C@H](CO)[C@@H](O)C2(F)F)c(=O)n1`, for which the “cell viability (log2)” value under setting [5] is active: -1.19; the “cell viability (log2)” value under setting [6] is active: -0.155; the “cell viability (log2)” value under setting [7] is active: -1.43; the “cell viability (log2)” value under setting [8] was active: -0.392; the “cell viability (log2)” value under setting [9] was active: -1.81; the “cell viability (log2)” value under setting [10] is active: -0.473. Also, the “cell viability (log2)” value is, setting by setting: under setting [11], active: -1.98; under setting [12], active: -0.588; under setting [13], active: -2.08; under setting [14], active: -0.562; under setting [15], active: -2.16; under setting [16], active: -0.572.

With `COc1ccccc1N1CCN(CCN(C(=O)C2CCCCC2)c2ccccn2)CC1`, the “cell viability (log2)” value is inactive: 0.196 under setting [17], inactive: 0.0284 under setting [18], inactive: 0.133 under setting [2] and inactive: 0.0787 under setting [19].

As to `CO[C@H]1C[C@@H]2CC[C@@H](C)[C@@](O)(O2)C(=O)C(=O)N2CCCC[C@H]2C(=O)O[C@H]([C@H](C)C[C@@H]2CC[C@@H](OCCO)[C@H](OC)C2)CC(=O)[C@H](C)/C=C(\C)[C@@H](O)[C@@H](OC)C(=O)[C@H](C)C[C@H](C)/C=C/C=C/C=C/1C`, the “cell viability (log2)” value was active: -0.823 under setting [5]; active: -0.667 under setting [6]; active: -0.931 under setting [7]; active: -0.779 under setting [8]; active: -0.921 under setting [9]; active: -0.761 under setting [10]. The “cell viability (log2)” value was active: -0.899 under setting [11]; active: -0.779 under setting [12]; active: -1.09 under setting [13]; active: -0.731 under setting [14]; active: -0.943 under setting [15]; active: -0.733 under setting [16].

`CC(=O)O[C@@]12CO[C@@H]1C[C@H](O)[C@@]1(C)C(=O)[C@H](O)C3=C(C)[C@@H](OC(=O)[C@H](O)[C@@H](NC(=O)OC(C)(C)C)c4ccccc4)C[C@@](O)([C@@H](OC(=O)c4ccccc4)[C@H]21)C3(C)C`: the “cell viability (log2)” value by setting is: under setting [5], active: -2.68; under setting [6], active: -0.934; under setting [7], active: -2.8; under setting [8], active: -1.01; under setting [9], active: -2.92; under setting [10], active: -1.04. Further, the “cell viability (log2)” value is active: -2.83 under setting [11]; active: -1.04 under setting [12]; active: -2.98 under setting [13]; active: -1.06 under setting [14]; active: -2.84 under setting [15]; active: -1.01 under setting [16].

Turning to `COc1ccc(/C=C/C(=O)O)cc1OC`, the “cell viability (log2)” value is, setting by setting: under setting [20], inactive: -0.00585; under setting [21], inactive: -0.00138; under setting [1], inactive: 0.164; under setting [22], inactive: 0.0104.

As for `N=C(N)c1ccc(OCCCCCOc2ccc(C(=N)N)cc2)cc1`, the “cell viability (log2)” value reads like this: under setting [20], inactive: 0.114; under setting [21], inactive: 0.194; under setting [17], inactive: 0.147; under setting [18], inactive: 0.137; under setting [1], inactive: 0.161; under setting [22], inactive: 0.127. For the same compound, the “cell viability (log2)” value is, setting by setting: under setting [2], inactive: 0.142; under setting [19], inactive: 0.0964.

On to `O=C(OC[C@H]1O[C@@H](OC(=O)c2cc(O)c(O)c(OC(=O)c3cc(O)c(O)c(O)c3)c2)[C@H](OC(=O)c2cc(O)c(O)c(OC(=O)c3cc(O)c(O)c(O)c3)c2)[C@@H](OC(=O)c2cc(O)c(O)c(OC(=O)c3cc(O)c(O)c(O)c3)c2)[C@@H]1OC(=O)c1cc(O)c(O)c(OC(=O)c2cc(O)c(O)c(O)c2)c1)c1cc(O)c(O)c(OC(=O)c2cc(O)c(O)c(O)c2)c1`, for which the “cell viability (log2)” value was inactive: 0.0136 under setting [20], inactive: 0.0976 under setting [21], inactive: 0.0623 under setting [1] and inactive: 0.298 under setting [22].

With `COC(=O)Nc1nc2ccc(C(=O)c3ccccc3)cc2[nH]1`, the “cell viability (log2)” value runs as follows: under setting [1], active: -1.65; under setting [22], active: -0.988; under setting [2], active: -2.05; under setting [19], active: -0.641; under setting [3], active: -3.34; under setting [4], active: -1.

Take `O=c1cc(-c2cccc3c2Sc2ccccc2S3)oc(N2CCOCC2)c1`: the “cell viability (log2)” value under setting [5] is inactive: 0.00625; the “cell viability (log2)” value under setting [6] is inactive: 0.00883; the “cell viability (log2)” value under setting [7] is inactive: -0.0309; the “cell viability (log2)” value under setting [8] was inactive: 0.0146; the “cell viability (log2)” value under setting [9] is inactive: 0.0133; the “cell viability (log2)” value under setting [10] was inactive: 0.00404. In addition, the “cell viability (log2)” value by setting is: under setting [11], inactive: 0.0162; under setting [12], inactive: 0.0289; under setting [13], inactive: -0.0501; under setting [14], inactive: 0.00607; under setting [15], inactive: 0.0363; under setting [16], inactive: -0.0432.

In the case of `Fc1ccc(C(c2ccc(F)cc2)N2CCN(C/C=C/c3ccccc3)CC2)cc1`, the “cell viability (log2)” value was inactive: 0.0134 under setting [20]; inactive: 0.0639 under setting [21]; inactive: 0.16 under setting [17]; inactive: 0.105 under setting [18]; inactive: 0.177 under setting [1]; inactive: 0.197 under setting [22]. In addition, the “cell viability (log2)” value was inactive: 0.161 under setting [2] and inactive: 0.0855 under setting [19].

On to `CN1CCc2c(c3ccccc3n2Cc2ccccc2)C1`, for which the “cell viability (log2)” value is inactive: 0.116 under setting [20], inactive: 0.0274 under setting [21], inactive: 0.196 under setting [1] and inactive: 0.0416 under setting [22].

For `NC(=NCc1ccccc1)NC(=O)c1nc(Cl)c(N)nc1N`, the “cell viability (log2)” value reads like this: under setting [17], inactive: 0.171; under setting [18], inactive: 0.0781; under setting [2], inactive: 0.0974; under setting [19], inactive: -0.0222.

On to `CN(C)C(=O)/C(=C\c1cccc(Br)c1)NC(=O)c1ccccc1`, for which the “cell viability (log2)” value under setting [20] was inactive: 0.0622, the “cell viability (log2)” value under setting [21] was inactive: 0.0915, the “cell viability (log2)” value under setting [1] was inactive: 0.179 and the “cell viability (log2)” value under setting [22] is inactive: 0.181.

`Nc1nc(Nc2ccccc2)nc2c1ncn2C1O[C@H](CO)[C@@H](O)[C@H]1O` (some centres undefined): the “cell viability (log2)” value was inactive: 0.161 under setting [17], inactive: 0.05 under setting [18], inactive: 0.213 under setting [2] and inactive: -0.0193 under setting [19].

Consider `COc1cccc2c1[C@@H]1CN(CCCCn3c(=O)[nH]c4c(sc5ncc(-c6ccccc6)nc54)c3=O)C[C@@H]1CO2`, for which the “cell viability (log2)” value runs as follows: under setting [17], inactive: 0.117; under setting [18], inactive: 0.0856; under setting [2], inactive: 0.103; under setting [19], inactive: 0.0563.

Take `Nc1nc(Cl)nc2c1ncn2[C@H]1C[C@H](O)[C@@H](CO)O1`: the “cell viability (log2)” value is, setting by setting: under setting [13], active: -0.402; under setting [15], active: -1.32; under setting [16], active: -0.402.
